# Results: the supplement of paper PMC11417369
# ± gives the standard deviation of the averaged measurements. The list shows a part of the results.
# System: PfAP2-I AP2 domain 3 (GST-tagged)
# Assay: gcPBM binding intensity (ln(normalized median fluorescence intensity)); higher = stronger DNA binding
# Summary of the method: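 Binding of GST-tagged P. falciparum DNA-binding domains, expressed in E. coli and used at about 25 μg on average, was carried out for 1 h in 1× PBS containing 1% milk, 0.2 mg/ml BSA, 0.5% salmon testes DNA and 0.03% Triton X-100. The target was an Agilent 4 × 180k array of primer-extended double-stranded 36-bp intergenic genomic probes plus negative controls, read with Alexa488 anti-GST antibody at 488 nm. Binding intensity is the highest Masliner-normalised natural-log median intensity across replicate spots of either probe orientation.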
row,Sequence,gcPBM binding intensity (ln)
1,TTACATATGGTTAGTAGTACATATATAAATGTAAAT [XGTACX_site7206],7.91 ± 0.26
2,AAAATACACGCATACACACACACACCCACCCATATA [CACACA_site639],8.21 ± 0.66
3,ATTATAATTATTTTGTTGCACTATTTTTGTAGGCCA [GTGCAC_site9734],10.3 ± 0.17
4,GAATACACCACGCACACACACTTGAGAAAAAATAAA [CACACA_site7747],8.57 ± 0.11
5,TCTATAAAGTTCCATACATGCGCCATCATTTATATT [TGCATGCA_site195],7.97 ± 0.79
6,GTGTACATAGGTATAGCACACACAAATGTAGGTATT [CACACA_site9339],8.46 ± 0.35
7,TGTATATATATATAAAGTACATATAATATATATTTG [XGTACX_site5411],7.48 ± 0.26
8,AAATAAAATTATAACTGTACGTTGTATGAAATAATG [XGTACX_site5462],7.94 ± 0.33
9,CTGTTTAAAATATAAACACACATTGTTTGCTTTAGA [CACACA_site1301],7.7 ± 0.52
10,ATTTTTTTACTGCAACCATATTTTTCCCTTTTATTC [CACACA_negctrl_site1282],9.02 ± 0.38
11,TTTTTAATAATCTCTCAAAATGTTCTTATATTTTAC [CACACA_negctrl_site1691],7.39 ± 0.68
12,TAATCTCATAAAACCGCACACACATAAAATTTGCAT [CACACA_site3890],8.13 ± 0.39
13,GAGAAATGGGGACACACACACATATTATAGATATAT [CACACA_site6829],8.17 ± 0.31
14,TAAGGATAAAATAAATGTACATATGTAAAATTATTA [XGTACX_site4170],7.49 ± 0.36
15,TTGTTTGATATCTTTGTCACGAAAAAAATATATATA [GTGCAC_negctrl_site54],7.83 ± 0.64
16,ATACTAAAGAAACACACACACATATATATATAGAAT [CACACA_site100],7.84 ± 0.52
17,TTTACACCCTAAAAATGTACAAGAAAGATTATATTA [XGTACX_site1102],7.57 ± 0.38
18,ATTTTTTTCCTAATGGTGCGAATAAATATCCATACC,9.79 ± 0.23
19,TTAACAGTAAAACACAGTACATATATACTTAAAACA [XGTACX_site1930],7.6 ± 0.48
20,TTTTTTTATTATACTAGTACATATATATACAGCACA [XGTACX_site3464],9.66 ± 0.81
21,AAAAAAAAAAAAGGAACACACAAGTAACAATAAATT [CACACA_site2481],7.76 ± 0.37
22,AAAGCTTACATATACACACATACATAAATTCATAAA [CACACA_site2469],7.68 ± 0.57
23,TTTGTCATTTTATTATGTACTCAGCATATAGGGGGG [XGTACX_site505],10.4 ± 0.16

row,Sequence,gcPBM binding intensity (ln)
1,GATTTTTAAAATATCACACATAAAAAAAAAAAAAAA [CACACA_site5516],8 ± 0.38
2,AAAAAAATTCTGACTTGTACATATAAAATTTACAAA [XGTACX_site4408],7.42 ± 0.39
3,TAATTTAATAATTAGACACACATGTGGAAAATAAAA [CACACA_site5401],8.5 ± 0.34
4,ACATATATATAAAGGTGTACACATATATATATATAT [XGTACX_site4779],9.46 ± 0.2
5,ATTTATTACAAATGAATGCACTATATCTTAATTTTG,9.91 ± 0.23
6,TAAGAAAAAAGTAAATGTACAGAGAAAATTATCTAT [XGTACX_site7374],7.62 ± 0.79
7,ATATATTTCCTGAGGAGTACTATGAAAGACAAAAAA [XGTACX_site5628],8.04 ± 0.44
8,ATAATTTTGATTATCACACATATATATATATATATG [CACACA_site5882],8.12 ± 0.52
9,GTAAAAAGATAATGAAGTACATTTTTTCATTTTTAT [XGTACX_site5579],7.64 ± 0.43
10,AAAAAAAAAAAACACACACACACACCCATATACATA [CACACA_site2664],7.94 ± 0.35
11,CATATCCTTACGAACTGTACAATATTAAGAATAAAA [XGTACX_site1651],7.8 ± 0.33
12,ATATATTCAATTCATACACACACAATTTAAGAATGA [CACACA_site9289],7.67 ± 0.49
13,ATATTAAGGTTTATATTTTAACTTATTATTTTATTC [CACACA_negctrl_site795],7.41 ± 0.54
14,ATTTATTTTTTTATCACACATTTGTGAAATGTGCAT [CACACA_site5869],7.83 ± 0.73
15,ATAAAAAAATCAGACACACACACGTAAACCCATACA [CACACA_site2773],8.04 ± 0.39
16,ACATATTTATATATGTGTACATAAATATTCTTTTAA [XGTACX_site8238],7.71 ± 0.39
17,GTTACTGCATACATAACACACATATTCAAAACCCAT [CACACA_site5856],8.75 ± 0.26
18,TTTTCCTTTACATAATGTACACAAAAAAAAAAAAAA [XGTACX_site716],8.24 ± 0.51
19,TCTTTTTTTTGAATTTGTACATAAGACAATAAAAAA [XGTACX_site4682],7.83 ± 0.3
20,CATCATAGAGTGGAGTGTACAAATATGTCAACATAT [XGTACX_site2264],7.99 ± 0.55
21,AATACAGACAGACACACACACAAAATAAAATACAAA [CACACA_site245],7.99 ± 0.29
22,TAGAAGCATTGACACACACACATACATACACATACA [CACACA_site6802],8.05 ± 0.42
23,TATATATATATATAATGTACATAATAATAATACATC [XGTACX_site5587],9.19 ± 0.18

row,Sequence,gcPBM binding intensity (ln)
1,GTCTATAACTATTGCGCACACTTTAAAAAAAAAGAA [CACACA_site1003],9.9 ± 0.23
2,CTAGACTTTATTAATTGTACATATGTGTATTTTATA [XGTACX_site480],7.63 ± 0.47
3,ATCCATCTTTTATATAGTACTTTATAATATATATAT [XGTACX_site8064],8.77 ± 0.41
4,CAATGTTAATATAATACACACAATATGTATTTGTCT [CACACA_site1162],7.62 ± 0.65
5,TTGTTAATATATATATGTACTTATTTATTTATTTAT [XGTACX_site2274],7.64 ± 0.29
6,TTTGAATTTTTTAACACACACATGTCTGGATATATA [CACACA_site1645],7.93 ± 0.47
7,GAAAAAAAAAAAAAAAGTACATGTCATAAATTGTAT [XGTACX_site1461],7.82 ± 0.64
8,TTTTCCTTAACACACGTTTATATAAAAAATTAAAAT [XGTACX_negctrl_site115],8.2 ± 0.3
9,AAATTAAAATATATATGTACATATATATATATATAT [XGTACX_site7844],9.43 ± 0.55
10,GAGCTTTGGATGAAAGCATGCGATGAATGGATAAAA [TGCATGCA_site786],7.91 ± 1
11,ATTTATTTCAATAAACTTCTTTTCTTTAACAATTAC [CACACA_negctrl_site1222],7.38 ± 0.74
12,CTGTAAAATGTGATGGTGCATATTAATTTAGTTGTA,10.7 ± 0.58
13,AACACAAATAAGTATTTGGATTATATTACATTTATA [CACACA_negctrl_site465],7.38 ± 0.61
14,ATAAAAATAAATAAATGTACATATATATATATATAT [XGTACX_site1277],9.24 ± 0.23
15,TAAATAGGAAAACCTATACACACTTTAAAAAAAATA [CACACA_site1621],7.42 ± 0.51
16,TAAATTAAAAAAAAAAACAAAAAAAAAGCAACAAAA [CACACA_negctrl_site1318],7.67 ± 0.57
17,AGTATTTCCATATGTACATGCAAAAGGAAAGATATA [TGCATGCA_site850],7.99 ± 0.64
18,TATTTTTCCCTATGCACACACACCGTATATATAATA [CACACA_site4758],9.445 ± 0.035
19,AAATATAAAAATAGCACACATATATACATATATATA [CACACA_site56],8.13 ± 0.59
20,TGTCCAATTTTTTATCGTACATAATATATAAATAAA [XGTACX_site1705],8.01 ± 0.33
21,TATAAAAATGTGTATGTACACACTTTATTTTTAATA [CACACA_site2532],7.63 ± 0.21
22,AGAAACGTAAGTTATACACACATGTCAAAAGAAAAA [CACACA_site312],7.72 ± 0.79
23,TTGAATATTTAAAAACGTACATAAAATTATTTGATT [XGTACX_site5422],7.82 ± 0.38

row,Sequence,gcPBM binding intensity (ln)
1,ATATATATATTTATAGTGCATTTATATTAAAATATC [GTGCAC_site9818],10.54 ± 0.021
2,TCAAATAGAAAATAAAGTACTTAATTTTTAGGAACA [XGTACX_site1446],7.92 ± 0.3
3,ATATATATTTATATATGTACATATTAATATATATAT [XGTACX_site1144],8.45 ± 0.15
4,ATATTTATATTTTTTTGTACATATATAATTTTATAA [XGTACX_site4151],7.84 ± 0.49
5,TTATAGTATTTATAATGTACAAATATATTTTATTTT [XGTACX_site5015],7.56 ± 0.41
6,AATATTTTAAGGCACACACACAAAAAAAAAAAAAAA [CACACA_site2890],10.3 ± 0.59
7,ATTTAAGGGGTGTATGCACACGACTATTCCGTATGA [CACACA_site4738],8.6 ± 0.39
8,TAATTTAGTATCTTTACATGCGGGCATTATGTCATA [TGCATGCA_site167],7.97 ± 0.35
9,CCAAAGGGGGTATACTGTACATATAGTGGTTATATA [XGTACX_site1515],8.77 ± 0.28
10,ATAGGCACTTTTTGCACACGTATGAATAACAAAATA [CACACA_site5069],9.54 ± 0.13
11,TGAAAATTTTAATGAGGAAATAAAATAAATATAATA [GTGCAC_negctrl_site159],7.6 ± 0.67
12,TTTATTAATAGACACACACACACACGCAAAATAAAA [CACACA_site6255],8.4 ± 0.23
13,CTTTATTATAAGATTACACACATGTGTTATAATTTA [CACACA_site3169],7.64 ± 0.54
14,TTGACCTTAAGAAGGTTGCACTAATCATTCAAAGTT,8.71 ± 0.56
15,CCATTTATTATTTGGGGTACATTTAATTAATATTTT [XGTACX_site5940],8.395 ± 0.007
16,TTTTAAACAAAAAATTGTACAATTAGTGTATAATCC [XGTACX_site778],8.07 ± 0.35
17,AAAAAAAAAAGACACACACACAAATACAAATACATA [CACACA_site6334],7.76 ± 0.44
18,AAAGGAAATTAAAATTGATTACATATATAAAAAAAC [XGTACX_negctrl_site196],7.94 ± 0.57
19,AATTTAATATAATGCACACATAAAAAAAAAAAAAAA [CACACA_site123],11.2 ± 0.78
20,AAGTATTACAACCACACACACACCTATATATTATAT [CACACA_site4158],8.07 ± 0.56
